# Screen size: about 420,000 compounds; about 50,000 (12%) were called active. The inconclusive results got no clear call from the source; some entries with a clear call stand among them for comparison. Calls follow the shape of the dose curve; as a rule, active = well fitted inhibition curve with a large enough effect; inconclusive = small, poorly fitted or top-dose-only effect; inactive = flat fitted curve, though single readings scatter. Potencies of inconclusive entries are left out as doubtful fits.
# Assay: qHTS for Inhibitors of human tyrosyl-DNA phosphodiesterase 1 (TDP1): qHTS in cells in presence of CPT; also: nearly all actives have a fitted effect of over 55% in size
# Settings: chicken DT40 Tdp1-/-;hTDP1 cells + 20 nM CPT, ATP luminescence, 48 h; activity change, negative = growth inhibition: at 46.2 µM (top of the series)
# Procedure, shortened: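 Chicken DT40 Tdp1-/- cells stably complemented with human TDP1 were seeded at 400 cells/well in medium containing 20 nM camptothecin, exposed to pin-transferred compounds, and grown at 37 °C for at least 48 hr. Viability was read as ATP luminescence.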
# % is scaled to controls: 0 for no effect and ±100 for the full control effect; potency is read from the fitted curve at half-maximal effect; tags tell the direction and shape of the fitted curve.
Compound,Potency,"activity change, negative = growth inhibition"
CCN(CC)S(=O)(=O)c1ccc(C)c(NC(=S)N2CCN(C/C=C/c3ccccc3)CC2)c1,"inconclusive [inhibitor, single point]",
COc1ccc(NC(=O)c2cc(-c3ccncc3)nc3ccc(Br)cc23)cc1OC,"inconclusive [inhibitor, single point]",
Cc1ccc(S(=O)(=O)c2c(O)cc(C)c(NS(=O)(=O)c3ccc(Br)cc3)c2C)cc1,"inconclusive [inhibitor, single point]",
CCOc1ccc(-c2c(C(=O)N/N=C/c3ccsc3)nnn2-c2nonc2N)cc1,,inactive: -16.8%
Cn1c2ccccc2c(=O)c2ccc(-c3ccc4c(c3)OCO4)cc21,"inconclusive [inhibitor, single point]",
Cc1ccc(C2C=C(c3ccccc3)Nc3ncnn32)cc1 (stereo not given),"inconclusive [inhibitor, single point]",
COc1ccc(C2Nc3ccccc3C(=O)N2Cc2ccco2)cc1COc1ccc(F)cc1 (stereo not given),"inconclusive [inhibitor, single point]",
Cc1cccc(NS(=O)(=O)c2cc([N+](=O)[O-])ccc2C)n1,,inactive: 4.56%
O=C(CC12CC3CC(CC(C3)C1)C2)Nc1ccccc1N1CCOCC1,"inconclusive [inhibitor, partial curve]",
C[C@H](CO)N1C[C@H](C)[C@@H](CN(C)Cc2ccc(-c3ccccc3)cc2)Oc2c(NC(=O)Cc3ccccc3)cccc2C1=O,"inconclusive [inhibitor, single point]",
COc1ccc(S(=O)(=O)N2CCOC2CNC(=O)C(=O)NCCc2c[nH]c3ccccc23)cc1 (stereo not given),active: 16.4 µM,
CCCCN(C)C(=O)c1cccc(OC2CCN(CC(C)(C)C)CC2)c1,"inconclusive [inhibitor, single point]",
Cc1sc2nc(CSCC(=O)Nc3ccc(Cl)cc3F)[nH]c(=O)c2c1C,,inactive: 3.15%
COc1cc(C(=O)Nc2ccc(NC(=O)c3ccco3)nc2)cc(OC)c1OC,"inconclusive [inhibitor, single point]",
O=C(NC1CCCC1)c1ccc(CNc2c(N3CCOCC3)c(=O)c2=O)cc1,,inactive: -4.76%
C[C@@H]1CN([C@H](C)CO)C(=O)Cc2cc(NC(=O)CCC(F)(F)F)ccc2O[C@@H]1CN(C)C(=O)Nc1ccccc1,,inactive: 7.24%
CSc1sc(-c2nnc(SCC(=O)Nc3ccc(Cl)cc3)n2C)c2c1C=CCC2,,inactive: -21.8%
COc1ccc(NC(=O)c2c(NCc3cccs3)sc3c2CCC(C)C3)c(OC)c1 (stereo not given),"inconclusive [inhibitor, single point]",
Cc1ccccc1/C=C/c1nc2ccccc2c(=O)[nH]1,active: 16.4 µM,
CC(C)Oc1cccc(C(=O)C2CCCN(C(=O)c3cc(C(F)(F)F)[nH]n3)C2)c1 (stereo not given),"inconclusive [inhibitor, single point]",
COc1cc(OC)c(C(=S)N2CCCC2)cc1OC,,inactive: -22%
Cc1cccc(CN2CCN(C(=O)c3ccccc3F)CC2)c1,,inactive: -8.27%
CCN(CC)C(=O)C1CCCN(C(=O)c2ccc3nc(-c4cccc(OC)c4)oc3c2)C1 (stereo not given),active: 23.1 µM,

Compound,Potency,"activity change, negative = growth inhibition"
Clc1ccccc1OCCCCN1CCCC1,,inactive: -11%
O=C(COc1ccc2c(c1)OCO2)Nc1nccs1,,inactive: -4.37%
O=C(O)CCC(=O)Nc1ccc(Br)cc1C(=O)c1ccccc1Cl,,inactive: -5.62%
COc1ccc(CCN(C)Cc2c(O)ccc3cc(Br)ccc23)cc1OC,"inconclusive [inhibitor, partial curve]",
CCO/C=C/C(O)(CNC(=O)c1ccc(C(C)(C)C)cc1)C(F)(F)F (stereo not given),"inconclusive [inhibitor, single point]",
S=C(c1ccc(Br)cc1)N1CCN(Cc2ccccc2)CC1,"inconclusive [inhibitor, single point]",
NC(=O)[C@@H]1[C@@H]2C(=O)N(c3ccc(F)cc3)C(=O)[C@@H]2[C@H]2C=Cc3ccccc3N21,"inconclusive [inhibitor, single point]",
Cc1ccc(C(C)C)c(OCC#CCN2CCOCC2)c1,,inactive: -21.1%
Cc1c(C(=O)N2CCOCC2)oc2ccc(S(=O)(=O)N3CCCC3)cc12,,inactive: -3.74%
O=C(CSc1nnc(-c2ccccc2Cl)o1)N1CCCc2ccccc21,"inconclusive [inhibitor, partial curve]",
C=CCc1cc(C=O)cc(OC)c1OCc1ccc(Cl)cc1,"inconclusive [inhibitor, partial curve, poor fit]",
COc1ccc(S(=O)(=O)NCC(c2cccs2)S(=O)(=O)c2ccccc2)cc1OC (stereo not given),"inconclusive [inhibitor, full curve]",
COc1ccc(-c2nnc(SCC(=O)Nc3cccc(C(F)(F)F)c3)s2)cc1,"inconclusive [inhibitor, full curve, poor fit]",
CCOc1ccc(C(=O)c2cn(CC(=O)Nc3ccc(Cl)cc3)c3cc4c(cc3c2=O)OCO4)cc1,"inconclusive [inhibitor, partial curve]",
Cc1nn(C)c2c1c(C(F)(F)F)cc(=O)n2C(C)C(=O)Nc1ccccc1F (stereo not given),,inconclusive: -31.6% [inhibitor]
CC1(C)CC(NC(=O)C(c2ccccc2)c2ccccc2)CC(C)(C)N1,,inactive: 5.41%
O=C(CN(C(=O)Cn1nnc(-c2ccc(F)cc2)n1)c1cccc(F)c1)NC1CCCC1,,inactive: -27.1%
Nc1nccc2c1ncn2C1OC(CO)C(O)C1O (stereo not given),active: 7.31 µM,
CC1(C(=O)OCC(=O)Nc2cccc(S(=O)(=O)NC3=NCCCCC3)c2)CC1(Cl)Cl (stereo not given),"inconclusive [inhibitor, single point]",
CCOC(=O)Cn1c(-c2ccc(Cl)nc2)nc2ccccc21,"inconclusive [inhibitor, partial curve]",
CCOc1cc(/C=N/NC(=O)c2ccccc2OCc2ccc(F)cc2)ccc1O,"inconclusive [inhibitor, single point]",
Cc1c(C(=O)N(Cc2ccccc2F)C2CCS(=O)(=O)C2)oc2ccccc12 (stereo not given),"inconclusive [inhibitor, single point]",

# Reference: PubChem BioAssay AID686979 (National Center for Advancing Translational Sciences (NCATS), 2013)
